Assay results published in PubChem BioAssay AID1508623 (National Center for Advancing Translational Sciences (NCATS), 2021).
The whole screen tested about 48,000 compounds, of which about 450 (0.94%) were called active. Roughly 19% stayed inconclusive and do not appear here. Calls follow the shape of the dose curve; as a rule, active = well fitted inhibition curve with a large enough effect; inconclusive = small, poorly fitted or top-dose-only effect; inactive = no such curve, though single readings can be large or run the other way. This is one part of the list.

Assay: Primary qHTS for Identification of Small Molecule Inhibitors of Huntingtin Promoter Activity; also: nearly all actives have a fitted effect of over 50% in size
Conditions: HEK293 HTT promoter firefly luciferase reporter (activity 0% = vehicle and -100% = no light), 24 h; series mostly up to 57.5 µM; activity change, negative = inhibition: at the top concentration
Method in brief: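 Firefly luciferase readout (Dual-Glo, 10 min RT) after 24 h, 37 °C compound exposure (final up to 57.5 uM) of HEK293 reporter cells cultured 24 h beforehand; PTC124 at 50 uM final as control inhibitor; activity scaled vehicle 0%, zero RLU -100%.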

Activity change, negative = inhibition, inactive:
Cc1ccc(OCC(=O)Nc2nonc2-c2ccc(C)c(C)c2)cc1C -2.06%
COc1ccccc1C(=O)Nc1cccc(C(=O)OCc2cc(=O)n3nc(C4CC4)sc3n2)c1 -7.45%
CC1CCCN(CCCNC(=O)c2ccc3c(c2)N(Cc2cccc(Cl)c2)C(=O)c2ccccc2S3(=O)=O)C1 (configuration not stated) -17.4%
CC(C)Cc1nn2c(=O)cc(COC(=O)CNC(=O)c3ccc(C(C)(C)C)cc3)nc2s1 -7.42%
Cc1ccc(C)c(CNC(=O)c2ccc3c(c2)nc2n3CCOC2)c1 -2.04%
COC(=O)c1ccc(C2c3c(oc4ccc(C)cc4c3=O)C(=O)N2Cc2ccc3c(c2)OCO3)cc1 (configuration not stated) -12.1%
COc1cccc(CNC(=O)Cn2ccc3cc(S(=O)(=O)N4CCCC4)ccc32)c1OC -20.6%
CCOC(=O)c1c(Nc2ccc(O)cc2)nnc(-c2ccccc2)c1-c1ccccc1 -17.5%
Cc1ccc(S(=O)(=O)c2nnn3c2nc(NCc2ccc4c(c2)OCO4)c2sccc23)cc1 -13.2%
Cc1cc(C)cc(NC(=O)c2ccc3oc(=O)c(S(=O)(=O)c4ccc(F)cc4)cc3c2)c1 -12.5%
COc1ccc(N2CCN(C(=O)C3CCN(S(=O)(=O)c4cccc5nonc45)CC3)CC2)cc1 -27.2%
O=C(Nc1ccc(-c2nc3ccccc3o2)c(O)c1)c1ccccc1 62.4%
Cc1ccc(-c2nnc(Nc3ccc(C(N)=O)cc3)c3ccccc23)cc1S(N)(=O)=O -0.664%
COc1ccc(NC(=O)Cn2c(=O)c3cccn3c3ccccc32)cc1Cl -11.6%
CCOC(=O)c1noc2ncnc(Nc3cc(Cl)c(OC)cc3OC)c12 -18.4%
COc1ccc(C)cc1NC(=O)Nc1cc(C(=O)NCc2ccc(C)cc2)ccc1N1CCCC1 -17.9%
COc1ccc(-c2nc3sc(CCNC(=O)Cc4ccc(F)cc4)c(C)n3n2)cc1 -6.61%
Cc1sc(-c2cc3ccccc3oc2=O)nc1-c1ccc(Cl)c(Cl)c1 -7.62%
CCOc1ccc(CNCc2c(C(=O)O)c(C)n(Cc3ccc(C)cc3)c2C)cc1 -22.4%
Cc1nnc(N2CCCC(C(=O)NCCN(C)C)C2)c2nn(-c3ccccc3)c(C)c12 (configuration not stated) 5.1%
CCOc1ccccc1OCCCCn1c(-c2ccc(Cl)cc2)nc2ccccc2c1=O -5.35%
Cc1ccc(-n2ncc3c(N(C)C)ncnc32)cc1Cl 46.6%
CCC(Sc1nc(-c2ccccc2)[nH]c1S(=O)(=O)c1ccc(C)cc1)C(=O)O (configuration not stated) -13.3%
CCN(CC)CCOc1ccc(C(=C(Cl)c2ccccc2)c2ccccc2)cc1 -9.33%
CC(C)c1ccc(-c2noc(SCC(=O)N3CCCCC3C)n2)cc1 (configuration not stated) -12.7%
Cc1cc(=O)n(Cc2ccc(F)cc2Cl)c2c1c(C)nn2C -7.93%
Cc1cccc(-c2nc(CCNC(=O)c3ccc(Br)o3)cs2)c1 -6.51%
Cc1cc(C)cc(OC(=O)c2cc(-c3ccc(Cl)cc3)on2)c1 4.83%
CCOc1ccc(NC(=O)c2c(NCc3cccnc3)sc3c2CCC(C)C3)cc1 (configuration not stated) 2.67%
CCN(CC)C(=O)Cn1c(=O)n(-c2ccc(C)c(C)c2)c(=O)c2c(C)c(C(=O)N(CC)CC)sc21 -14.6%
CC(=O)c1sc(NC(=O)c2c(-c3ccccc3)c(-c3ccccc3)nn(C)c2=O)nc1C 3.3%
CCN1CCN(C(=O)c2cnn(-c3ccc(F)cc3F)c2C2CCN(C(=O)OC(C)(C)C)CC2)CC1 -4.24%
COc1ccc(OC)c(NC(=O)c2cnc(Nc3ccc(C)c(Cl)c3)c3ccccc23)c1 -14.4%
COc1cc(Cl)c(NC(=O)CCc2nc3cccnc3n2-c2ccccc2)c(OC)c1 -28.4%
CC(=O)Nc1c(C)nn(-c2ccccc2)c1N1CCC(C(=O)NCc2cccc(Cl)c2)CC1 -17.5%
CC1=C(C(=O)Nc2ccc(Cl)cc2)C(c2cccs2)n2nc(SCc3cccc(C)c3)nc2N1 (configuration not stated) -0.34%
Cc1ccc(NC(=O)c2cnc(SCC(=O)N3CCCc4ccccc43)n(C)c2=O)cc1 -14%
CCOc1ccc(NC(=O)CCNS(=O)(=O)c2ccc3c(c2)CCCC(=O)N3)cc1 -16.3%
O=c1c(NCc2ccccc2Cl)nccn1-c1ccccc1 4.63%
CCOC(=O)CCC(=O)Nc1nnc2n1CCS2 9.72%
CC(=O)N1CCc2cc(S(=O)(=O)NC(CC(C)C)C(=O)NCc3ccccc3Cl)ccc21 (configuration not stated) -13.8%
COc1ccc(CNC(=O)CCc2c(C)c3cc4c(C)c(C)oc4cc3oc2=O)cc1 -2.8%
Cc1ccc(C(=O)Nc2nnc(S(=O)(=O)N3CCCCCC3)s2)cc1 39.6%
CC(=O)Nc1ccc(-c2nnc3n(Cc4ccc(C)cc4)c(=O)c4ccccc4n23)cc1 -5.07%
CCCCNc1ccc(C(=O)OCCN(C)C)cc1 15.8%
CCC(=O)N1CCc2cc(Br)cc(S(=O)(=O)N3CCC(C(=O)Nc4ccccc4F)CC3)c21 -3.12%
Cc1cc(C)cc(C(=O)n2nc(C)c(S(=O)(=O)N3CCCCCC3)c2C)c1 -13.4%
Cc1c(C(=O)N2CCN(c3ccc(F)cc3)CC2)sc2nc3n(c(=O)c12)CCC3 0.194%
O=C(Cn1ccn(-c2ccc(F)cc2)c(=O)c1=O)Nc1ccccc1C(F)(F)F -10.9%
CCCCc1nn2c(=O)cc(COC(=O)c3ccccc3NC(=O)c3cccs3)nc2s1 -13.9%
CC(C)Cn1c(C2CC(=O)N(c3ccccc3Cl)C2)nc2ccccc21 (configuration not stated) 1.84%
Cc1oc(-c2ccc(C(=O)NCCN(C)C)cc2)nc1CS(=O)(=O)c1ccccc1 -9.53% [at 11.5 µM]
O=C(Cn1nc(-c2ccccc2)nc(Cc2ccccc2)c1=O)Nc1ccc(Cl)cc1 -15.2%
Cc1cccc(NC(=O)Cn2nnc(C(=O)NCc3ccco3)c2N)c1 -15%
Cc1cccc(-n2c(N)cc(=O)nc2SCC(=O)Nc2ccc(F)cc2)c1C -34.4% [at 11.5 µM]
COc1ccc(Br)cc1C(=O)Nc1ccc(-c2nc3ncccc3o2)cc1C -8.52%
Cc1ccc(C(=O)NCC(=O)OCc2cc(=O)n3ccsc3n2)cc1 -0.487%
CCc1ccc(NC(=O)CSc2ccc3nc(-c4ccc(OC)cc4)cn3n2)cc1 9.46%
COC(=O)CSc1nc2sc3c(c2c(=O)n1-c1ccc(C)cc1)CC(C(C)C)OC3 (configuration not stated) -2.23%
CCN(CC)S(=O)(=O)c1ccc2c(c1)N(CC(=O)Nc1ccc(OC)cc1)C(=O)CS2 -19.9%
CCOc1ccc(NC(=O)C2CCCN(c3cnccn3)C2)cc1 (configuration not stated) 12.2%
CCOc1ccc(Cl)cc1CNCCCSc1nnnn1C -1.9%
CCCCCOC(=O)Nc1nc(=O)n([C@@H]2O[C@H](C)[C@@H](O)[C@H]2O)cc1F 2.49%
Cc1ccc(CN(C(=O)COc2ccccc2[N+](=O)[O-])c2ccccn2)cc1 -17.6%
CCCN(CCC)CCNC(=O)CN1C(=O)COc2ccc(S(=O)(=O)N3CCOCC3)cc21 -12.2%
CCC(CC)C(=O)Nc1nnc(S(=O)(=O)N2CCc3ccccc32)s1 -10%
Cc1cccc(OCC(=O)NCCc2nc3ccccc3[nH]2)c1C -2.25%
O=C(NCc1ccccc1Cl)C1CCN(C(=O)N2CCOc3ccccc32)CC1 -4.39%
CCOc1ccc(-n2nc(CO)c(C(=O)NCc3ccccn3)n2)cc1 -15%
COc1ccc(C2=NN(S(C)(=O)=O)C(c3cn(-c4ccccc4)nc3-c3cccs3)C2)cc1 (configuration not stated) -6.94%
C#CCN1C(=O)C(O)(CC(=O)c2ccc(OC)c(OC)c2)c2cc(Br)ccc21 (configuration not stated) -18.2%
COc1ccc(C(=O)NCC(c2ccc3c(c2)OCO3)N2CCOCC2)cc1 (configuration not stated) -21%
Cc1oc2ncnc(N3CCOCC3)c2c1C(=O)N1CCN(c2cccc(C(F)(F)F)c2)CC1 -9.41%
CCCn1c(=N)c(C(=O)NCc2cccnc2)cc2c(=O)n3cccc(C)c3nc21 -1.01%
COc1cccc(-c2ccnc3c(-c4ccc(F)cc4)c(C)nn23)c1 8.99%
Cc1ccc(Oc2nc3c(c(=O)n(Cc4ccccc4)c(=O)n3C)n2C)cc1C -14.6%
CC1(C)CC(=O)c2cc(C(=O)Nc3ccc(Br)cc3)c(=O)[nH]c2C1 54.3%
COc1ccc(NC(=O)C2=C(C)Nc3ncnn3C2c2ccc(C)o2)cc1 (configuration not stated) -5.9%
CN(C)CCOC(c1ccc(Cl)cc1)c1ccccn1 (configuration not stated) 6.31%
Cc1ccc(-c2nc3ccccn3c2Nc2ccc3c(c2)OCCO3)s1 -22.4%
COc1ccc(OCC(=O)N2CCN(C(=O)c3cc(OC)c(OC)c(OC)c3)CC2)cc1 0.257%
CCOc1ccc(C2N3CC4(C(C)C)CN2CC(C(C)C)(C3)C4=O)cc1OC (configuration not stated) -13.1%
CCOc1ccccc1NC(=O)N(C)CCc1c(C)nn(CC)c1C 0.509%
Cc1ccc(COc2ccc3oc(-c4ccccc4)c(C(=O)O)c3c2)cc1 -5.22%
COc1ccc(-n2nc(C(=O)Nc3ccc(Br)cc3C)c3c4ccccc4n(C)c3c2=O)cc1 -22.2%
CCOc1ccc(C2C=C(c3cccc(OC)c3)Nc3nnnn32)cc1 (configuration not stated) -28%
COc1ccc(C(=O)N2CC(=O)Nc3ccc(C)cc3C2c2ccccc2)cc1OC (configuration not stated) -19.2%
O=C(COc1ccccc1)NCC(c1cccs1)S(=O)(=O)c1ccc(Cl)cc1 (configuration not stated) -31.5%
COc1cccc(C(=O)Nc2ccc(-n3nncc3-c3ccc(Br)cc3)cc2)c1OC -17.4%
Cc1cc(C)n2c(Nc3ccccc3C)c(-c3cccs3)nc2n1 -3.87%
Cc1c(C2=CCN(S(=O)(=O)c3ccc(Br)cc3)CC2)c2ccccc2n1CC(=O)N1CCCC1 -1.29%
Cc1ccc(CNC(=O)CSc2c3c(nc4ccc(Cl)cc24)CCCC3)cc1 -12.2%
Cc1cccc(Nc2nc(C)nc(N)c2S(=O)(=O)c2ccccc2)c1 -8.8%
CCOc1ccc(NC(=O)CN(Cc2ccccc2)S(=O)(=O)c2ccc(Cl)cc2)cc1 -43.5%
COc1ccc2nc3oc(C(=O)Nc4cccc(C(F)(F)F)c4)cc3cc2c1 -2.34%
CCc1c(C)sc2c1CCN(C(=O)Nc1ccccc1C(=O)OC)C2c1ccc(F)cc1 (configuration not stated) -20.3%
CCNC(=O)c1c(NC(=O)COc2ccc(F)cc2)sc2c1CCCC2 -3.57%
